According to publication PMC12623972, “Loss of full-length DAZL isoform disrupts PABPC1-dependent translational regulation and meiosis” (Cell Death & Disease, 2025):

Biological target: T1, MYC-tagged DAZL_FL (mouse, UniProt Q64368 1-298)
T1 sequence (looked up): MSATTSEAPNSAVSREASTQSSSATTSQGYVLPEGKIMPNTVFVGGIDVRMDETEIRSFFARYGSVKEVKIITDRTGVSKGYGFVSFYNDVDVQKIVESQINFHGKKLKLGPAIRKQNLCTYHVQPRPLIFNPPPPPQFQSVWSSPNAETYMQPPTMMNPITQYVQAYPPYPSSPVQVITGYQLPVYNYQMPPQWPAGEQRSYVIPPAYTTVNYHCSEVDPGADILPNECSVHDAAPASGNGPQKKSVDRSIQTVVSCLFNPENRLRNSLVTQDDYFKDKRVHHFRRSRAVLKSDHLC
Assay: cell-based or functional assay

B1: HA-tagged PABPC1 (natural protein)
chain: not shown
luciferase activity of the Mdc1 3' UTR reporter plasmid, DAZL_FL co-expressed with PABPC1 compared to DAZL_Sh co-expressed with PABPC1: > 1.7 fold
luciferase activity of the Psma8 3' UTR reporter plasmid, DAZL_FL co-expressed with PABPC1 compared to DAZL_Sh co-expressed with PABPC1: > 1.8 fold
luciferase activity of the Tex19.1 3' UTR reporter plasmid, DAZL_FL co-expressed with PABPC1 compared to DAZL_Sh co-expressed with PABPC1: > 1.6 fold
